Assay results taken from the supplement of paper PMC4604168 (melanoma cell lines).
This is one part of the list. Single values are uncertain, as repeats are few or missing.

System: WM115
Experiment: cell count relative to DMSO control; melanoma cells; higher = more viable cells
Conditions: library dose: low library concentration; 72 h
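Further: cell number obtained by counting DAPI-stained nuclei in high-throughput microscope images with image analysis software, screen run in 1,536-well plates.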

Row | Structure (SMILES) | cell count [%]
1 | CN(C)S(=O)(=O)c1ccc2c(c1)/C(=C/c1cc3c([nH]1)CCCC3)C(=O)N2 + CC(C)CCN1c2nc(Nc3cc(F)c(O)c(F)c3)ncc2N(C)C(=O)C1C [BID1870] (first compound 0.4 µM, partner dose 0.2 µM) | 70.4
2 | C=CCn1c(=O)c2cnc(Nc3ccc(N4CCN(C)CC4)cc3)nc2n1-c1cccc(C(C)(C)O)n1 + CCCCCCCCCCCC1=C(O)C(=O)C=C(O)C1=O [Embelin] (first compound 0.02 µM, partner dose 1.2 µM) | 77.4
3 | CO[C@@H]1[C@H](N(C)C(=O)c2ccccc2)C[C@H]2O[C@]1(C)n1c3ccccc3c3c4c(c5c6ccccc6n2c5c31)C(=O)NC4 [Midostaurin] + CCN(CC)CCCCNc1ncc2cc(-c3cc(OC)cc(OC)c3)c(NC(=O)NC(C)(C)C)nc2n1 [PD173074] (first compound 0.08 µM, partner dose 0.1 µM) | 98.5
4 | CO[C@@H]1[C@H](N(C)C(=O)c2ccccc2)C[C@H]2O[C@]1(C)n1c3ccccc3c3c4c(c5c6ccccc6n2c5c31)C(=O)NC4 [Midostaurin] + O=C1NC(=O)/C(=C/c2ccc(-c3ccc(F)cc3O)o2)S1 [AS252424] (first compound 0.08 µM, partner dose 1 µM) | 74.7
5 | OCCn1cc(-c2cnc3nnn(Cc4ccc5ncccc5c4)c3n2)cn1 + CCc1ccc(CCOc2ccc(CC3SC(=O)NC3=O)cc2)nc1 [pioglitazone] (first compound 1 µM, partner dose 2 µM) | 96
6 | C[C@]1(c2nc3c(C(N)=O)cccc3[nH]2)CCCN1 [Veliparib] + CC1(C)NC(=O)N(c2ccc([N+](=O)[O-])c(C(F)(F)F)c2)C1=O [nilutamide] (first compound 1.4 µM, partner dose 1 µM) | 85.9
7 | Cc1nc(Nc2ncc(C(=O)Nc3c(C)cccc3Cl)s2)cc(N2CCN(CCO)CC2)n1 [dasatanib] + COc1cc(Nc2ncc(F)c(Nc3ccc4c(n3)NC(=O)C(C)(C)O4)n2)cc(OC)c1OC [Tamatinib] (first compound 0.004 µM, partner dose 0.4 µM) | 73.8
8 | CN(C)S(=O)(=O)c1ccc2c(c1)/C(=C/c1cc3c([nH]1)CCCC3)C(=O)N2 + COC(=O)c1sccc1S(=O)(=O)Nc1ccc(Nc2ccccc2)cc1OC [GSK0660] (first compound 0.4 µM, partner dose 1 µM) | 87.1
9 | CN(C)S(=O)(=O)c1ccc2c(c1)/C(=C/c1cc3c([nH]1)CCCC3)C(=O)N2 + NCC(=O)Nc1ccc(-n2nc(C(F)(F)F)cc2-c2ccc3c(ccc4ccccc43)c2)cc1 [OSU03012] (first compound 0.4 µM, partner dose 1 µM) | 82.9
